Data as given in the supplement of paper PMC10600219.
Where a name gives a salt, the structure may show the parent alone. In all, about 2,800 compounds were measured (“cell viability relative to vehicle”: median about 1.1, lowest 2% from about 0.19 on). The list shows a part of the results.

Each compound was assayed on NCI-H2228 parental (assay: cell viability relative to vehicle (fraction of vehicle); NCI-H2228 is an ALK-positive lung cancer line and DTP means drug-tolerant persister; higher = less growth inhibition). Details: 100 nM; treatment time 6 days.
Procedure, shortened: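 The 3114-agent TargetMol anti-cancer compound library was tested at 100 nM for 6 days on parental NCI-H2228 cells and on persister cells derived with 1000 nM of a targeted drug for 13 days. ATP readout by the CellTiter-Glo 3D Cell Viability Assay gave cell viability relative to DMSO vehicle-treated cells.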
Work on `O=C1NC(=O)/C(=C/c2ccc3c(c2)OC(F)(F)O3)S1` yielded a cell viability of 1.13.
In the case of `COc1ccc(-c2coc3cc(O)ccc3c2=O)cc1O` [Calycosin], the cell viability is reported as 1.04.
Work on `COc1cc([C@@H]2c3cc4c(cc3[C@@H](O[C@@H]3O[C@@H]5CO[C@@H](c6cccs6)O[C@H]5[C@H](O)[C@H]3O)[C@H]3COC(=O)[C@H]23)OCO4)cc(OC)c1O` [Teniposide] yielded a cell viability of 0.24.
Work on `NC(=O)c1ccc[n+]([O-])c1` [Nicotinamide-N-oxide] yielded a cell viability of 1.16.
In the case of `O=C(C[S+]([O-])Cc1ccco1)NC/C=C\COc1cc(CN2CCCCC2)ccn1` (configuration not stated) [Lafutidine], the cell viability is reported as 1.14.
In the case of `O=C(c1ccccc1)c1ccc2n1CCC2C(=O)O` (configuration not stated) [Ketorolac tromethamine salt], the cell viability is reported as 1.01.
Work on `COc1c(N2CCNC(C)C2)c(F)cc2c(=O)c(C(=O)O)cn(C3CC3)c12` (configuration not stated) [Gatifloxacin] yielded a cell viability of 1.06.
With `Cc1ccccc1C(C(=O)NC1CCCCC1)N(C(=O)Cn1cnc2ccccc21)c1cccc(F)c1` (configuration not stated) the cell viability was 1.19.
Compound `O=C(Nc1ccccc1Br)N[C@@H]1CCN(c2ccc(C(F)(F)F)cn2)C1` has a cell viability of 1.06.
`CC(C)c1c(-c2ccccc2)nc2c(C#N)c[nH]n2c1=O` gave a cell viability of 1.1.
`Cc1ccc2nc(N)[nH]c(=O)c2c1Sc1ccncc1` [Nolatrexed] showed a cell viability of 1.04.
With `O=C(O)COc1ccc(Br)cc1/C=C1\SC(=S)N(Cc2cccnc2)C1=O` [Skp2 Inhibitor C1] the cell viability was 0.978.
With `O=C(NOCC(O)CO)c1cc(Br)c(F)c(F)c1Nc1ccc(I)cc1F` (configuration not stated) the cell viability was 0.843.
`CN(C)CC(c1ccc(O)cc1)C1(O)CCCCC1` (configuration not stated) [Desvenlafaxine] gave a cell viability of 1.02.
Work on `C=C(C)[C@@H]1CC=C(CO)CC1` [Perillyl alcohol] yielded a cell viability of 1.08.
Compound `CN(C)C/C=C/C(=O)Nc1cc2c(Nc3ccc(F)c(Cl)c3)ncnc2cc1O[C@H]1CCOC1` [Afatinib] has a cell viability of 1.1.
`CN(C)C/C=C/C(=O)Nc1cc2c(Nc3ccc(F)c(Cl)c3)ncnc2cc1O[C@H]1CCOC1` [Afatinib Dimaleate] showed a cell viability of 1.02.
`O=C1NC(=O)C(=Cc2ccc(-c3ccc(F)cc3)o2)S1` (stereo in doubt) gave a cell viability of 1.1.
Compound `O=C1NCCCc2c1oc1ccc(O)cc21` has a cell viability of 0.957.
`COc1cc(N2CCC(N3CCN(C)CC3)CC2)ccc1Nc1ncc(Cl)c(Nc2ccccc2P(C)(C)=O)n1` [Brigatinib] was tested, and the cell viability was 0.426.
`COc1ccccc1OCC(O)COC(N)=O` (configuration not stated) [Methocarbamol] showed a cell viability of 1.32.
`Cc1cc(N)c2ccccc2[n+]1CCCCCCCCCC[n+]1c(C)cc(N)c2ccccc21` [Dequalinium chloride] was tested, and the cell viability was 0.804.
With `CCc1c(Cl)c(O)c(Cl)c(O)c1C(=O)O[C@H]1[C@H](O)[C@H](OC)[C@H](OC/C2=C\C=C\C[C@H](O)/C(C)=C/[C@H](CC)[C@@H](O[C@@H]3OC(C)(C)[C@@H](OC(=O)C(C)C)[C@H](O)[C@@H]3O)/C(C)=C/C(C)=C/C[C@@H]([C@@H](C)O)OC2=O)O[C@@H]1C` [Fidaxomicin] the cell viability was 1.1.
With `Nc1ccn([C@@H]2CS[C@H](CO)O2)c(=O)n1` [Lamivudine] the cell viability was 1.21.
With `COC(=O)Nc1nc2cc([S+]([O-])c3ccccc3)ccc2[nH]1` (configuration not stated) [Oxfendazole] the cell viability was 1.18.
In the case of `N#Cc1c(NC(=O)c2cccc3ccccc23)sc2c1CCCC2`, the cell viability is reported as 0.393.
For `C=CC(=O)Nc1cccc(Nc2nc(Nc3ccc(OCCOC)cc3)ncc2F)c1` [Spebrutinib], the cell viability was 0.822.
`CCC(=O)Nc1cccc(Oc2nc(Nc3ccc(N4CCN(C)CC4)cc3OC)ncc2Cl)c1` showed a cell viability of 1.22.
Work on `CC(C)C(C)C(O)C(O)C(C)C1CCC2C3COC(=O)C4CC(O)C(O)CC4(C)C3CCC12C` (configuration not stated) [Brassinolide] yielded a cell viability of 1.08.
In the case of `CCC(=O)O[C@]1(C(=O)CO)CC[C@H]2[C@@H]3CCC4=CC(=O)CC[C@]4(C)[C@H]3CC[C@@]21C` [17 alpha-propionate], the cell viability is reported as 1.15.
`O=c1ccccn1CC1(O)CCN(Cc2ccccc2)CC1` showed a cell viability of 1.05.
In the case of `O=C(/C=C/c1ccc(O)c(O)c1)O[C@@H]1C[C@](O)(C(=O)O)C[C@@H](O)[C@H]1O` [Chlorogenic Acid], the cell viability is reported as 1.14.
`CCOc1cc2c(c(F)c1OCC)C(=N)N(CC(=O)c1cc(N3CCOCC3)c(OC)c(C(C)(C)C)c1)C2` [Atopaxar Hydrobromide] was tested, and the cell viability was 1.18.
In the case of `Fc1ccc(-c2c3cccc(C(F)(F)F)c3nn2Cc2ccc(F)cc2Cl)cc1`, the cell viability is reported as 1.04.
With `CCC(=O)N1CC[C@H](Nc2ncnc3c2CN(c2cnc(OC)c(C(F)(F)F)c2)CC3)C1` [Leniolisib] the cell viability was 0.947.
With `Oc1cccc(-c2nc(N3CCOCC3)c3oc4ncccc4c3n2)c1` the cell viability was 0.866.
Work on `Cn1cc(-c2ccc3c(c2)CCN3C(=O)Cc2cccc(C(F)(F)F)c2)c2c(N)ncnc21` yielded a cell viability of 1.04.
`Cc1cc(C(=O)Nc2cccc(C(=O)Nc3cccc(C(F)(F)F)c3)c2)on1` gave a cell viability of 1.13.
Compound `Cc1cc(SCc2sc(-c3ccc(C(F)(F)F)cc3)nc2C)ccc1OCC(=O)O` has a cell viability of 0.994.
`C[C@@H]1CCCCCCCCCCCCC(=O)C1` [Muscone] gave a cell viability of 1.13.
With `C#C[C@]1(O)CC[C@H]2[C@@H]3CCC4=CC(=O)CC[C@@H]4[C@H]3CC[C@@]21CC` [Levonorgestrel] the cell viability was 1.17.
`N#C/C(=C\c1ccc(O)c(O)c1)C(=O)NCc1ccccc1` gave a cell viability of 0.871.
Work on `CCN(CC)CCCCNc1ncc2cc(-c3cc(OC)cc(OC)c3)c(NC(=O)NC(C)(C)C)nc2n1` yielded a cell viability of 0.993.
`CC[C@@H](CO)NCCN[C@@H](CC)CO` [Ethambutol dihydrochloride] gave a cell viability of 1.1.
`C/C=C(/C)C(=O)O[C@@H]1[C@H](OC(C)=O)c2c(ccc3ccc(=O)oc23)OC1(C)C` [Praeruptorin A] was tested, and the cell viability was 1.15.
Compound `CC(C)C[C@H](NC(=O)CNC(=O)c1cc(Cl)ccc1Cl)B1OC(=O)C(CC(=O)O)(CC(=O)O)O1` has a cell viability of 0.106.
In the case of `Cc1cc(OCc2nnc(SC3CCCC3)n2-c2cccnc2)ccc1-c1ccc(S(C)(=O)=O)cc1`, the cell viability is reported as 0.785.
In the case of `CNC(=O)c1ccc(C)c(-n2c(C)cc(OCc3ccc(F)cc3F)c(Br)c2=O)c1`, the cell viability is reported as 1.1.
Work on `CC(=O)Nc1ccn([C@@H]2O[C@H](CO)[C@@H](O)[C@H]2O)c(=O)n1` [N4-Acetylcytidine] yielded a cell viability of 1.06.
Compound `CC(C)S(=O)(=O)c1ccc2nccc(Nc3ccc4scnc4c3)c2c1` has a cell viability of 1.08.
`C=C1CC[C@H]2C(=C)CC[C@H]3C(=C)C(=O)O[C@@H]3[C@@H]12` [Dehydrocostus Lactone] showed a cell viability of 1.13.
In the case of `COCCOc1ccc(N2CCN(CCn3ncc4c3nc(N)n3nc(-c5ccco5)nc43)CC2)cc1` [Preladenant], the cell viability is reported as 1.02.
Compound `O=c1c(-c2ccc(O[C@@H]3O[C@H](CO)[C@@H](O)[C@H](O)[C@H]3O)cc2)coc2cc(O)cc(O)c12` [Sophoricoside] has a cell viability of 0.949.
`Cc1ccc(-n2nc(C(C)(C)C)cc2NC(=O)Nc2ccc(OCCN3CCOCC3)c3ccccc23)cc1` [Doramapimod] was tested, and the cell viability was 0.986.
`C=CC(=O)Nc1cccc(Oc2nc(Nc3ccc(N4CCN(C)CC4)cc3)nc3ccsc23)c1` [Olmutinib] was tested, and the cell viability was 1.09.
For `C[C@H](NC(=O)C(=O)Nc1ccccc1C(C)(C)C)C(=O)N[C@@H](CC(=O)O)C(=O)COc1c(F)c(F)cc(F)c1F` [Emricasan], the cell viability was 0.971.
`CCc1c(-c2ccc(C(=O)NC)nc2)cnc(N)c1-c1ccc(O)cc1` gave a cell viability of 1.09.
Compound `c1ccc(CN(CC2=NCCN2)c2ccccc2)cc1` [Antazoline hydrochloride] has a cell viability of 1.11.
For `CN(C)Cc1ccc(S(=O)(=O)n2ccc(/C=C/C(=O)NO)c2)cc1` [Resminostat hydrochloride], the cell viability was 1.02.
With `Nc1ncnc2n[nH]c(Nc3ccc(F)cc3)c12` the cell viability was 0.961.
`CN(C)CC/C=C1/c2ccccc2COc2ccc(CC(=O)O)cc21` [Olopatadine hydrochloride] showed a cell viability of 0.889.
`CCc1cnc(N2CCC(c3nc(COc4ccc(-n5cnnn5)cc4)cs3)CC2)nc1` gave a cell viability of 0.962.
Work on `NC[C@H](O)c1ccc(O)c(O)c1` [Noradrenaline bitartrate] yielded a cell viability of 1.16.
In the case of `NC[C@H](O)c1ccc(O)c(O)c1` [Noradrenaline bitartrate monohydrate], the cell viability is reported as 1.03.
`CCN(CC)CCNC(=O)c1ccc(N)cc1` [Procainamide hydrochloride] was tested, and the cell viability was 1.16.
For `O=C(O)c1ccc(-c2ccc(C=C3SC(=S)N(Cc4ccccc4)C3=O)o2)cc1` [Leukadherin-1], the cell viability was 1.06.
`O=C(O)C1=C(CSc2nnnn2CS(=O)(=O)O)CS[C@@H]2[C@H](NC(=O)[C@H](O)c3ccccc3)C(=O)N12` [Cefonicid sodium] gave a cell viability of 1.1.
With `CCc1cc2c(cc1CC)CC(NC[C@H](O)c1ccc(O)c3[nH]c(=O)ccc13)C2` [Indacaterol] the cell viability was 1.07.
Compound `CCc1cc2c(cc1CC)CC(NC[C@H](O)c1ccc(O)c3[nH]c(=O)ccc13)C2` [Indacaterol maleate] has a cell viability of 0.963.
In the case of `Cc1c(-c2ccc(O)cc2)n(Cc2ccc(OCCN3CCCCCC3)cc2)c2ccc(O)cc12` [Bazedoxifene acetate], the cell viability is reported as 1.24.
Work on `O=C(O)c1cccc(-c2noc(-c3ccccc3F)n2)c1` [Ataluren] yielded a cell viability of 1.06.
`Nc1ccc(S(=O)(=O)Nc2nccs2)cc1` [Sulfathiazole] gave a cell viability of 1.04.
`Cc1ccc(NC(=O)CCCCCC(=O)Nc2ccccc2N)cc1` [Pimelic diphenylamide 106] was tested, and the cell viability was 0.963.
`Cc1ccc(-c2cc(C(F)(F)F)nn2-c2ccc(S(N)(=O)=O)cc2)cc1` [Celecoxib] showed a cell viability of 1.14.
Work on `CC(C)[N+]1(C)[C@@H]2CC[C@H]1C[C@@H](OC(=O)C(CO)c1ccccc1)C2` (some centres not stated) [Ipratropium Bromide] yielded a cell viability of 1.12.
Compound `CC(C)[N+]1(C)[C@@H]2CC[C@H]1C[C@@H](OC(=O)C(CO)c1ccccc1)C2` (some centres not stated) [Ipratropium bromide monohydrate] has a cell viability of 1.11.
`Cc1cc(O)c(-c2ccc(C(C)CN)cc2)c2c1[nH]c(=O)c1sccc12` (configuration not stated) showed a cell viability of 0.116.
